Reference: PubChem BioAssay AID504333 (National Center for Advancing Translational Sciences (NCATS), 2011)
Among all 360,000 compounds or so, about 16,000 (4.4%) were called active. The inconclusive results got no clear call from the source; some entries with a clear call stand among them for comparison. Calls follow the shape of the dose curve; as a rule, active = well fitted inhibition curve with a large enough effect; inconclusive = small, poorly fitted or top-dose-only effect; inactive = no such curve, though single readings can be large or run the other way. Potencies beside an inconclusive call are fits to weak or partial responses and may not hold up.

Each compound was assayed against Bromodomain adjacent to zinc finger domain protein 2B (Homo sapiens) (UniProt Q9UIF8) (assay: qHTS Assay for Inhibitors of BAZ2B). Details: AlphaScreen BAZ2B-H3K14Ac peptide displacement; series mostly up to 114 µM.
Outline: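 Complex of BAZ2B and biotin-H3K14Ac (50 nM apiece) forms over 30 min at RT, then faces library compounds up to 110 uM for another 30 min; AlphaScreen beads added, 20 min dark incubation, luminescence read.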
Also: nearly all actives have a fitted effect of over 60% in size.
Potency is read from the fitted curve at half-maximal effect; tags tell the direction and shape of the fitted curve.

Sequence of UniProt Q9UIF8 (Q9UIF8 whole entry, looked up, the tested form may be a part): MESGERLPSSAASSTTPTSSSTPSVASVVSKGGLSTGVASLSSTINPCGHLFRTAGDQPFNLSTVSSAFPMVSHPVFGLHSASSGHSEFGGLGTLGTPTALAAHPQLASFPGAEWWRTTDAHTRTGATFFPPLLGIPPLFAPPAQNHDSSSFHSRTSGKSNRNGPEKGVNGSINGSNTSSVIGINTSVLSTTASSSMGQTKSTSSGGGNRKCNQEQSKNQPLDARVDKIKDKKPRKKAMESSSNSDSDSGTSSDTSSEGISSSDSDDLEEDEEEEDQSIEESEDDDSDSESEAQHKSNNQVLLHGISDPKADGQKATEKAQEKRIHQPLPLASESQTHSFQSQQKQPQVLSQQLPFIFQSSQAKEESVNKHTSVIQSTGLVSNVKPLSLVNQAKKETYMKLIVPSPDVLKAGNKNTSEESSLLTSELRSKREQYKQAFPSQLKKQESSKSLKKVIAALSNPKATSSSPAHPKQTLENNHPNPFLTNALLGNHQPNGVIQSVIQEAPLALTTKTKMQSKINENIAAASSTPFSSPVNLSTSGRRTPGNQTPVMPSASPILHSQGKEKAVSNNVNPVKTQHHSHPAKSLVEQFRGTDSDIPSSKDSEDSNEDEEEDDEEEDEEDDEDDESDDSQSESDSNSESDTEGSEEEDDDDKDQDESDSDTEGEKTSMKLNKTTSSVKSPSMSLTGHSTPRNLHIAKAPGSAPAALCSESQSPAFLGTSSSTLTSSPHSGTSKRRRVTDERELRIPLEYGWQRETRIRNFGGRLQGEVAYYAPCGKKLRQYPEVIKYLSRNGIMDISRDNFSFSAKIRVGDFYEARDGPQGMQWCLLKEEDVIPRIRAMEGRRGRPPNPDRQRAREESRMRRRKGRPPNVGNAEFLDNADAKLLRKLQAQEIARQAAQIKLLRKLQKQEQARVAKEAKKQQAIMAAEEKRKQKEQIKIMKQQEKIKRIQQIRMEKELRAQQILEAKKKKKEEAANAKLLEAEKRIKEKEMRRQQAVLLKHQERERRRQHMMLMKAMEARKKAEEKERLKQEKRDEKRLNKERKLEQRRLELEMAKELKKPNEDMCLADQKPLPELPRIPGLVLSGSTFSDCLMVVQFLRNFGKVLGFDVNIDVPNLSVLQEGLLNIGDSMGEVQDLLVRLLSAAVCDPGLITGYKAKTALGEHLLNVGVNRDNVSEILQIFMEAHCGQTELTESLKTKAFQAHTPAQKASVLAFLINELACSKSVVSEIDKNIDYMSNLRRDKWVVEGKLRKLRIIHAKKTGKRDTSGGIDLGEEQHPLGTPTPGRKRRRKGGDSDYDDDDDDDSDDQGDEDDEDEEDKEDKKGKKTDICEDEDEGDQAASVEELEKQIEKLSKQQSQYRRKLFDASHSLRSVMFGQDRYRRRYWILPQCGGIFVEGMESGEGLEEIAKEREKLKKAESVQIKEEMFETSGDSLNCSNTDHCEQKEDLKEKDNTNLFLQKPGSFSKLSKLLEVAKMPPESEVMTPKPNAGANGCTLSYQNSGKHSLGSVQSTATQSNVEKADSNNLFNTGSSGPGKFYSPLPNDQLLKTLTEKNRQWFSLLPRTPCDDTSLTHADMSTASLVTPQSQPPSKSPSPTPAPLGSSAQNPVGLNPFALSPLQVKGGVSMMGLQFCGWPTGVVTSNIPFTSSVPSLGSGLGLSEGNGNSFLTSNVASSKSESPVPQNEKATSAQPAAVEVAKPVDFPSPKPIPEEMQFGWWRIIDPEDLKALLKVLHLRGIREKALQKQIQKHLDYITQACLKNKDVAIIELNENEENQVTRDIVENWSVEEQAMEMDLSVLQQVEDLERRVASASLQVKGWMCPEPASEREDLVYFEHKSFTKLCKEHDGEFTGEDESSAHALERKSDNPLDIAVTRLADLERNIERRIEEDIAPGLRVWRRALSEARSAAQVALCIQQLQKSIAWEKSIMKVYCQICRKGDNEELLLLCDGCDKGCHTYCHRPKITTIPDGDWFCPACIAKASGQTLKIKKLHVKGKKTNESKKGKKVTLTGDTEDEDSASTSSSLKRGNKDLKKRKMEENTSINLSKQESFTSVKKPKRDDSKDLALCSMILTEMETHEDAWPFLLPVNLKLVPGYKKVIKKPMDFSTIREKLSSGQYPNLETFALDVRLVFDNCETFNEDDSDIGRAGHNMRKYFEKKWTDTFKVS

| Compound | Potency |
| --- | --- |
| COCc1cc(=O)n2[nH]c(-c3ccsc3-n3c(C)ccc3C)cc2n1 | inconclusive: 89.1 µM [inhibitor, single point] |
| CN(C)CCCOc1cccc(Oc2ccccc2)c1 | inconclusive: 89.1 µM [inhibitor, single point] |
| Cn1cccc1/C=N/NC(=O)c1cc(-c2cccs2)nc2ccccc12 | active: 22.4 µM |
| COc1ccc(NC(=O)CN(C)C(=O)c2cc(-c3ccco3)nc3ccccc23)cc1 | active: 31.6 µM |
| CCOc1ccc(-c2c(C(=O)N/N=C/C3CCCCC3)nnn2-c2nonc2N)cc1 | inconclusive: 79.4 µM [inhibitor, single point] |
| Cc1cccc(OCC(=O)NCCN2CCOCC2)c1 | inconclusive: 89.1 µM [inhibitor, single point] |
| Cc1cccc(NC(=O)Cn2c(SCC(=O)NCc3ccccc3)nc3ccccc32)c1C | inconclusive: 89.1 µM [inhibitor, single point] |
| S=C(NCc1ccc(Cl)cc1)Nc1ccccc1 | inactive |
| COc1ccc(C(=O)C2CCCN(Cc3cccn3-c3ccccn3)C2)c(C)c1 (centres undefined) | inconclusive: 22.4 µM [inhibitor, full curve] |
| O=C(Nc1cccnc1)c1cc2c(ccc3ccccc32)o1 | active: 79.4 µM |
| COc1ccccc1CC(NC(C)=O)C(=O)NC1CCN(C(=O)c2cccc(Cl)c2)CC1 (centres undefined) | inconclusive: 89.1 µM [inhibitor, single point] |
| O=C(NCCc1ccc(Cl)cc1)c1ccc2c(c1)N(Cc1c(F)cccc1Cl)C(=O)CS2 | inactive |
| COc1cccc(/C=N/NC(=O)CNC(=O)c2ccc(S(=O)(=O)N3CCOCC3)cc2)c1OC | inconclusive: 89.1 µM [inhibitor, single point] |
| c1ccc(-c2nnc(CN3CCN(C(c4ccccc4)c4ccccc4)CC3)o2)cc1 | inconclusive: 63.1 µM [inhibitor, partial curve, poor fit] |
| CC1(C)CC(=O)C2=C(C1)NC1=C(C(=O)c3ccccc31)C2c1ccc(O)cc1 (centres undefined) | active: 39.8 µM |
| Cc1ccc(/C=C/C(=O)O)cc1S(=O)(=O)NCc1ccco1 | inconclusive: 89.1 µM [inhibitor, single point] |
| COc1ccc(NC(=S)Nc2cccc(C(C)=O)c2)cc1OC | inconclusive: 56.2 µM [inhibitor, partial curve, poor fit] |
| COc1cc(Cl)c(NC2=CC(=O)C(=O)c3ccccc32)c(OC)c1 | inconclusive: 44.7 µM [inhibitor, partial curve] |
| CCOC(=O)C1CCCN(S(=O)(=O)c2cc3c(cc2C)NC(=O)CO3)C1 (centres undefined) | inactive |
| COc1ccc(N2CCN(C(CNS(=O)(=O)c3cccs3)c3cccnc3)CC2)cc1 (centres undefined) | inconclusive: 70.8 µM [inhibitor, single point] |
| Cc1ccc(C(c2c(C)nn(-c3ccccc3)c2N)c2c(C)nn(-c3ccccc3)c2N)cc1 | inconclusive: 50.1 µM [inhibitor, partial curve] |
| Cc1ccc(C(=O)NNC(=O)c2ccccc2O)cc1S(=O)(=O)N1CCCCC1 | inactive |
| COC(=O)c1ccc(NC(=O)c2cccc(Cl)c2)o1 | inconclusive: 89.1 µM [inhibitor, single point] |

| Compound | Potency |
| --- | --- |
| Cn1c(O)c(C2=c3ccccc3=NC2=O)[nH]c1=S | inconclusive: 89.1 µM [inhibitor, single point] |
| COc1ccc(N2Nc3n[nH]c(N)c3N2)cc1 | inactive |
| CCCCC(=O)OCC(=O)Nc1cccc(S(=O)(=O)NC2=NCCCCC2)c1 | inactive |
| O=C(NCc1ccco1)C(Cc1ccccc1)NS(=O)(=O)c1cccc2nsnc12 (centres undefined) | inconclusive: 89.1 µM [inhibitor, single point] |
| O=C(CSc1nc(-c2ccccc2)nc2c1Cc1ccccc1O2)Nc1ccc(C(=O)O)cc1 | active: 12.6 µM |
| CCOc1ccc(C(=O)c2cn(Cc3ccccc3)c3c(F)cc(F)cc3c2=O)cc1 | inactive |
| N#Cc1ccccc1CSc1ncccc1C(=O)O | inactive |
| CC1C/C(=C\c2ccccc2[N+](=O)[O-])c2nc3ccccc3c(C(=O)O)c2C1 (centres undefined) | inconclusive: 89.1 µM [inhibitor, single point] |
| O=C1C(=O)N(CCN2CCOCC2)C(c2cccnc2)/C1=C(/O)c1ccc(Cl)cc1 (centres undefined) | inactive |
| O=C(COC(=O)/C=C/c1ccco1)NCc1ccco1 | active: 44.7 µM |
| CCC(=O)Nc1ccc(C(=O)NNC(=O)C(c2ccccc2)c2ccccc2)cc1 | inconclusive: 56.2 µM [inhibitor, partial curve, poor fit] |
| O=C(Nc1ccc2c(c1)OCO2)c1cccc2c1C(=O)N(C1CCCCC1)C2 | inconclusive: 89.1 µM [inhibitor, single point] |
| Fc1ccc(SCCc2ccccn2)cc1 | inconclusive: 89.1 µM [inhibitor, single point] |
| COCCn1c(SCC(=O)NCC2CCCO2)nc2c(c1=O)SCC2 (centres undefined) | inactive |
| Cc1cccc(OCC(O)CN2CC3(C)CC2CC(C)(C)C3)c1 (centres undefined) | inconclusive: 89.1 µM [inhibitor, single point] |
| O=C(NN=C1C2CC3CC(C2)CC1C3)c1ccccc1O | inactive |
| Cc1c(NC(=O)C2CC(c3cccc(Br)c3)=NO2)c(=O)n(-c2ccccc2)n1C (centres undefined) | inactive |
| Cc1cccc(C)c1NC(=O)CSCc1cccc(CSCC(=O)Nc2c(C)cccc2C)n1 | inconclusive: 7.08 µM [inhibitor, single point] |
| CCN1CCN(c2ccc(NC(=O)c3ccc4c(c3)OCCO4)cc2C)CC1 | inconclusive: 89.1 µM [inhibitor, single point] |
| COc1ccc(OC)c(/C=C(\C#N)c2nc3ccccc3c(=O)[nH]2)c1 | inactive |
| CN(C)S(=O)(=O)c1cccc(C(=O)Nc2ccc(N3CCOCC3)cc2)c1 | inconclusive: 79.4 µM [inhibitor, partial curve] |
| Cc1sc2c(c1C)c(=O)n(CCc1ccccc1)c(=O)n2Cc1ccc(F)cc1 | inactive |
| Cc1nc(C)c(CC(=O)N2CCc3c([nH]c4ccccc34)C2c2ccccn2)s1 (centres undefined) | inconclusive: 44.7 µM [inhibitor, partial curve] |

| Compound | Potency |
| --- | --- |
| S=C(NCCCN1CCOCC1)N1CCN(c2cccc(Cl)c2)CC1 | inactive |
| Cc1ccccc1-c1n[nH]c(=S)n1/N=C/c1ccc(-c2ccccc2Br)o1 | inconclusive: 39.8 µM [inhibitor, partial curve] |
| CCCC1=C(C(=O)OCC)C(c2cccs2)C(C#N)=C(N)O1 (centres undefined) | inactive |
| O=C(O)c1cccc(-n2c(/C=C/c3ccc([N+](=O)[O-])cc3)nc3ccccc3c2=O)c1 | inactive |
| Cc1c(O)ccc(/C=N/Nc2nc(-c3cccnc3)nc3ccccc23)c1O | inconclusive: 70.8 µM [inhibitor, single point] |
| CCc1cccc(NS(=O)(=O)c2ccc3c(c2)N(C)CCO3)c1 | inconclusive: 50.1 µM [inhibitor, partial curve] |
| CNC(=O)c1[nH]cnc1C(=O)Nc1ccccc1 | inconclusive: 89.1 µM [inhibitor, single point] |
| COc1ccccc1N1CCN(CCCNC(=O)c2cnn(-c3ccc(C)c(C)c3)c2C2CCN(C(=O)OC(C)(C)C)CC2)CC1 | inconclusive: 5.62 µM [inhibitor, single point] |
| Cn1c(-c2ccccc2)cnc1N | inconclusive: 50.1 µM [inhibitor, partial curve] |
| C#CCOCCOCCOCCNc1nc(N2CCN(C(=O)[C@H]([C@@H](C)CC)n3cc([C@@H](N)CC(C)C)nn3)CC2)nc(N2CCN(C(=O)[C@H](CCCCN)n3cc([C@@H](N)C(C)CC)nn3)CC2)n1 (some centres undefined) | active: 79.4 µM |
| COc1ccc(C2c3c4c(n(C)c3CCN2C)CCN(C)C4c2ccc(OC)cc2)cc1 (centres undefined) | inconclusive: 3.98 µM [inhibitor, full curve, poor fit] |
| CCOC(=O)c1c(NC(=O)C(C)Sc2cn(CCNC(=O)c3ccccc3OC)c3ccccc23)sc2c1CCC2 (centres undefined) | active: 8.91 µM |
| O=C(O)CCNC(=O)/C(=C\c1ccco1)NC(=O)c1ccco1 | inactive |
| COc1ccccc1-c1nnc2sc(COc3ccc(Cl)cc3Cl)nn12 | inconclusive: 14.1 µM [inhibitor, full curve, poor fit] |
| COC(=O)C1=C(C(=O)OC)[C@@H]2N(C)c3ccccc3[C@@]23C[C@@H](C(=O)OC)N(C(=O)c2cccs2)C3=N1 | inconclusive: 70.8 µM [inhibitor, single point] |
| NC(=O)c1ccsc1NC(=O)COC(=O)Cc1cccc2ccccc12 | inconclusive: 35.5 µM [inhibitor, single point] |
| COc1ccc(Cn2ccc3nc(C)c(C(=O)N4CCN(c5ccccc5F)CC4)cc3c2=O)cc1 | inconclusive: 89.1 µM [inhibitor, single point] |
| CC1CCCCC1NC(=O)C(=O)NCC1CCCO1 (centres undefined) | inactive |
| CCN(CC)CCNC(C(=O)Nc1ccc([N+](=O)[O-])cc1Br)c1ccccc1 (centres undefined) | inconclusive: 89.1 µM [inhibitor, single point] |
| CC(OC(=O)c1oc2ccccc2c1CSC1CCCCC1)C(=O)NC(N)=O (centres undefined) | inconclusive: 100 µM [inhibitor, single point] |
| O=c1c2cn[nH]c2nc(SCc2ccccc2F)n1-c1ccc(Br)cc1 | inconclusive: 70.8 µM [inhibitor, single point] |
| Cc1cccc(/C=N/N2CCN(c3ccccc3)CC2)c1 | inconclusive: 79.4 µM [inhibitor, partial curve, poor fit] |
| COC(=O)c1cc(C)sc1NC(=S)N1CCN(CCc2ccccc2)CC1 | inconclusive: 56.2 µM [inhibitor, partial curve, poor fit] |
